Data on 38 molecules can be found in the supplement of paper PMC9446081.

Structures are written as SMILES. About 220 (0.56%) of roughly 39,000 compounds showed activity. The list shows a part of the results.
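Further: static incubation at 37 °C against the wild-type strain, values averaged over two biological replicates.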

In this assay the test system is Escherichia coli K-12 BW25113. In words: relative growth (OD600 normalised to plate interquartile mean) (fraction); higher = less growth inhibition, active = 0.2 or less. Particulars: 50 µM; LB; incubation time: overnight (16-24 h).
As for `C[C@@H]1CN([C@@H](C)CO)C(=O)c2cccc(NC(=O)c3nc4ccccc4s3)c2O[C@@H]1CN(C)Cc1ccc(C(F)(F)F)cc1`, the relative growth was inactive: 1.02.

With `O=C(C[C@H]1C[C@H]2c3cc(NS(=O)(=O)c4ccc(F)cc4)ccc3O[C@H]2[C@H](CO)O1)NCc1cccnc1`, the relative growth was inactive: 0.995.

Regarding `C[C@@H]1CN([C@@H](C)CO)C(=O)c2cc(NC(=O)Nc3ccc(F)cc3)ccc2O[C@H]1CN(C)CC1CCCCC1`, the relative growth is inactive: 1.

`C[C@@H]1CN([C@@H](C)CO)C(=O)CCCn2nncc2CO[C@@H]1CN(C)C(=O)C1CC1`: the relative growth was inactive: 1.

On to `CC(C)NC(=O)Nc1ccc2c(c1)C(=O)N([C@@H](C)CO)C[C@@H](C)[C@@H](CN(C)CC1CCCCC1)OCCCC[C@H](C)O2`, for which the relative growth was inactive: 0.999.

Take `C[C@@H]1CCCCO[C@@H](CN(C)C(=O)Nc2cccc3ccccc23)[C@H](C)CN([C@@H](C)CO)C(=O)c2cc(NC(=O)CCCN(C)C)ccc2O1`: the relative growth is inactive: 0.99.

As for `O/N=C/c1ccc2ccccc2c1`, the relative growth is inactive: 1.03.

As for `O=c1[nH]nc(N2CCSCC2)[nH]1`, the relative growth is inactive: 0.983.

For the molecule `C[C@H](CO)N1C[C@H](C)[C@H](CN(C)C(=O)Nc2ccccc2)OCCCC[C@H](C)Oc2ccc(NC(=O)C3CCCCC3)cc2C1=O`, the relative growth is inactive: 0.981.

As to `COc1ccc(CN(C)C[C@H]2OCCCC[C@H](C)Oc3ccc(NC(=O)c4ccccc4)cc3C(=O)N([C@@H](C)CO)C[C@@H]2C)cc1`, the relative growth was inactive: 0.989.

Regarding `C[C@H](CO)N1C[C@H](C)[C@H](CN(C)C(=O)Nc2ccc(C(F)(F)F)cc2)OCCCC[C@H](C)Oc2ccc(NC(=O)Nc3ccc(C(F)(F)F)cc3)cc2C1=O`, the relative growth is inactive: 1.01.

Regarding `C[C@@H]1CN([C@@H](C)CO)C(=O)c2cc(NC(=O)Cn3cnnn3)ccc2O[C@H]1CN(C)Cc1ccc(Cl)c(Cl)c1`, the relative growth is inactive: 1.02.

Turning to `C[C@H]1CN([C@@H](C)CO)C(=O)c2cc(NS(C)(=O)=O)ccc2O[C@@H]1CN(C)C(=O)NC1CCCCC1`, the relative growth is inactive: 0.984.

For `O=C(O)[C@H]1C[C@@H]2C[C@H]1CC[C@@H]2O`, the relative growth is inactive: 0.997.

For the molecule `C[C@H](CO)N1C[C@H](C)[C@H](CN(C)CC2CCCCC2)Oc2ccc(NC(=O)Nc3cccc4ccccc34)cc2C1=O`, the relative growth is inactive: 1.

On to `Cc1nnc(N2CCC[C@]3(CN(C(=O)CO)CCO3)C2)o1`, for which the relative growth is inactive: 1.01.

Take `C[C@H](O)C#Cc1ccc2c(c1)O[C@@H](CN(C)C)[C@@H](C)CN([C@H](C)CO)S2(=O)=O`: the relative growth is inactive: 1.

On to `C[C@H](CO)N1C[C@H](C)[C@H](CN(C)C(=O)NC2CCCCC2)Oc2ccc(NC(=O)Cn3cnnn3)cc2CC1=O`, for which the relative growth was inactive: 1.

With `CC(C)NC(=O)N(C)C[C@H]1Oc2c(NC(=O)C3CCCCC3)cccc2C(=O)N([C@@H](C)CO)C[C@@H]1C`, the relative growth was inactive: 0.953.

As for `C[C@H]1CN([C@@H](C)CO)C(=O)c2cccc(NC(=O)CCCCCC(=O)Nc3ccccc3N)c2O[C@@H]1CN(C)S(=O)(=O)c1cn(C)cn1`, the relative growth is inactive: 0.967.

With `CO[C@H]1CCCNC1`, the relative growth is inactive: 0.997.

Consider `C[C@@H]1CN([C@H](C)CO)C(=O)Cc2cc(NC(=O)Cc3ccccc3)ccc2O[C@@H]1CN(C)S(=O)(=O)c1cn(C)cn1`, for which the relative growth is inactive: 0.981.

Consider `C[C@@H]1CCCCO[C@@H](CN(C)C)[C@@H](C)CN([C@H](C)CO)C(=O)c2cc(NC(=O)Nc3cccc4ccccc34)ccc2O1`, for which the relative growth is inactive: 1.

Regarding `C[C@H]1CCCCO[C@H](CN(C)C(=O)Nc2ccc3c(c2)OCO3)[C@@H](C)CN([C@@H](C)CO)C(=O)c2cc(NC(=O)Nc3ccccc3)ccc2O1`, the relative growth is inactive: 1.05.

Consider `CC(C)C[C@@H]1C(=O)O[C@H](C)C(=O)N(C)[C@@H](CC(C)C)C(=O)O[C@H](Cc2ccc(N3CCOCC3)cc2)C(=O)N(C)[C@@H](CC(C)C)C(=O)O[C@H](C)C(=O)N(C)[C@@H](CC(C)C)C(=O)O[C@H](Cc2ccc(N3CCOCC3)cc2)C(=O)N1C`, for which the relative growth was inactive: 0.978.

For `C[C@H]1CN([C@@H](C)CO)C(=O)Cc2cc(NS(=O)(=O)c3cccs3)ccc2O[C@H]1CN(C)CC1CC1`, the relative growth was inactive: 0.929.

For the molecule `Cc1noc(C)c1S(=O)(=O)N(C)C[C@H]1OCc2cn(nn2)CCCC(=O)N([C@@H](C)CO)C[C@H]1C`, the relative growth is inactive: 1.01.

Consider `COc1ccc(CN(C)C[C@@H]2OCCCC[C@H](C)Oc3ccc(NS(=O)(=O)c4ccccc4)cc3C(=O)N([C@H](C)CO)C[C@@H]2C)cc1`, for which the relative growth is inactive: 0.992.

As for `CC(C)NC(=O)Nc1cccc2c1O[C@@H](CN(C)S(=O)(=O)c1ccccc1)[C@H](C)CN([C@@H](C)CO)C2=O`, the relative growth is inactive: 1.01.

Turning to `COc1cccc(-c2ccc3c(c2)O[C@H](CN(C)C(=O)C2CCOCC2)[C@H](C)CN([C@H](C)CO)S3(=O)=O)c1`, the relative growth is inactive: 1.01.

For the molecule `C[C@H]1CN([C@@H](C)CO)C(=O)c2cc(NS(=O)(=O)c3ccc(F)cc3)ccc2O[C@@H]1CN(C)Cc1ccc(Oc2ccccc2)cc1`, the relative growth is inactive: 1.

As for `CC(C)[Si](C#C[Si](C(C)C)(C(C)C)C(C)C)(O[C@H](C)c1cn(Cc2cccc(Cl)c2)nn1)C(C)C`, the relative growth was inactive: 1.

With `C[C@@H]1CN([C@H](C)CO)C(=O)c2cc(NC(=O)Nc3ccc(C(F)(F)F)cc3)ccc2O[C@@H]1CN(C)C(=O)Nc1ccc(F)cc1`, the relative growth was inactive: 1.

Regarding `Cc1ccc(S(=O)(=O)N(C)C[C@@H]2Oc3ccc(NC(=O)c4ccncc4)cc3CC(=O)N([C@@H](C)CO)C[C@H]2C)cc1`, the relative growth is inactive: 1.02.

`NCc1ccccc1CC(=O)NC1C(=O)N2C(C(=O)O)=C(CSc3nnnn3CC(=O)O)CSC12` (stereo not drawn): the relative growth was active: 0.0453.

`c1ccc(-c2nn(-c3ccccc3)c3c2cnc2ccccc23)cc1`: the relative growth was inactive: 0.956.

Consider `C=CCOC(=O)[C@@H]1[C@@H]2C=C[C@@]3(O2)[C@@H]1C(=O)N(CCCCCCO)[C@H]3C(=O)N(CC=C)Cc1ccccc1`, for which the relative growth was inactive: 1.03.

For `Cc1ccc(S(=O)(=O)N(C)C[C@@H]2Oc3ccc(NS(=O)(=O)c4c(C)noc4C)cc3C(=O)N([C@@H](C)CO)C[C@@H]2C)cc1`, the relative growth was inactive: 0.993.
